Test results: paper PMC10726135
The list shows a part of the results. At the low end of the ranking the order means little. The protein was read in a cell extract, so binding may be indirect.

The sequences below were run against T1, HNF4alpha2 (COS-7 nuclear extract) (UniProt P41235) (assay: protein-binding microarray). Settings: COS-7 nuclear extract on double-stranded Agilent 4x180k PBM; binding buffer, salt, pH and temperature not given; high values mean tight binding; double strand, one strand shown; sequences stand for … in …GCCTAGGGAGATTAGAGTATCGGTCGA.
T1 sequence: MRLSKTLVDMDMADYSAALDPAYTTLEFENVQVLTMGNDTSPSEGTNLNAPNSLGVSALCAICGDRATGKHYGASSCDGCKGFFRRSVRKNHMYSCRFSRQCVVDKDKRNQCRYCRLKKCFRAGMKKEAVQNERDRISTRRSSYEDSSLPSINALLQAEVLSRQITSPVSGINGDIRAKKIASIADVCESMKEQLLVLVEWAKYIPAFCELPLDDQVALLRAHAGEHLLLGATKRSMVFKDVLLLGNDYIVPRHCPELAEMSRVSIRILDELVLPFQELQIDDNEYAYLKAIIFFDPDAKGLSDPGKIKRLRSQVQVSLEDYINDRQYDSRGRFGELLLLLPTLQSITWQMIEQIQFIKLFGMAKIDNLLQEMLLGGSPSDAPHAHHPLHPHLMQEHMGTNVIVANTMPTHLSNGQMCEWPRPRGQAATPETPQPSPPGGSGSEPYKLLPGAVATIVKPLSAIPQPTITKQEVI

| Sequence | binding signal (log2 normalized intensity) |
| --- | --- |
| ACTTAACTACTACACTAAAAAAAAAAAAAT | -1.13 |
| TCATGTGAAGACACTGAGGAAAAGCTGTCT | -1.11 |
| TCCATTTCTAGACACCAAACACAGTTGCTG | -1.07 |
| TCGACCTTTGTGGGCTTCAGACATTGCAAA | 0.574 |
| TGCCCTTTGCCCTCACTGGTAGAAGGCAGC | 4.58 |
| TTGCCCTTCTTGGATGCCCTTCCCTAACCC | 2.66 |
| AGCGTACGCAGGGCGGCCGGCGGAGCGCCG | -1.3 |
| TGACCTTGGACTCTGCCCTTGGCCTACTTA | 4.3 |
| CCATGCAAATTGCTGACTTTCTGTGTCTTG | 0.751 |
| TACATAACCACCACTGGGCAATTGGTTTCC | 0.59 |
| GTAGTTACCTGATGAAGCAATAGGAATCAC | -0.373 |
| GGGCGTGAACTGTGACTTTTATCTTAGGTA | 1.24 |
| CTATCAGGAAACTCTTTCCTAACAGTGAAT | -1.09 |
| TCTTAGAAGATAAAGTGTCTCCCTCTGCAG | 0.902 |
| TCTATCAAAGGAGAAAAAGTCAACACTTAG | -1.16 |
| CAGCAGTAGGCTCTCGGGCCAGCTGTACAA | -1.1 |
| AGTTGGAATTTCAGAAGCAGGTCAATAGGG | 0.508 |
| CTGAGGAAGTGCTGACCTTTGGTCTAAACC | 6.27 |
| ACTGCTCCCTCTGCTCCCCTGGCCTCACCC | 2.66 |
| TGACTATAGCGTCTCCTGGCCTCTGTGAAG | -0.808 |
| ACTGCAAGGCAAACACTCAAGGTCCAAACA | 0.279 |
| AGCGGAGCATCCCTCGGGCCGGGAAACGCC | -1.11 |
| CTGGCCTCCTGCGGTCCGGACTCTGCCCCA | 4.41 |
| GAAAAGACAGGGTAATTTACAGAACTCTTC | -1.16 |
| CTAACCTTTGACCATCCACGGATGCATGAT | 3.51 |

| Sequence | binding signal (log2 normalized intensity) |
| --- | --- |
| GTCTAGCTTGTTCTCTCCCCCAACCCCACC | 5.54 |
| TTAAACTGCCGCGCCACTGCGTCCAGCCAC | -1.2 |
| TGCTCTCTGTCCCTGCACCCTACCCCCATA | 4.72 |
| GCCTGCATGGGCTGTCACCTTTACCCCCAC | 5.09 |
| CGGCGGGGTCACGTGGGGCCGGTACAAAAG | 1.37 |
| TACTGCCTCAGGGAGGAGTTGTCATCATAA | -0.82 |
| ATATGTGCCTGCCTTATACAACCTCTGTAA | 0.759 |
| AGAATGAGACCTGCTAGGCTGCATTCTCTG | -0.977 |
| AAACTGGAGGCCGCGACAAGCGTCGCTGAG | -1.26 |
| TTCTGTCCTCTCAAAGTCCACCCGGCCAGC | 4.04 |
| AAGTAGCCTGGTCAGGAACAAAGGTCACAG | 5.05 |
| TCCCTTTGATATTTATCAAGATGAACTTTG | 4.93 |
| AGATAAGAAAGAATCAGCACAAGAATGCTA | -1.05 |
| TCTTCAGGCTGGGGCCCCATCGACCTTTGC | 6.79 |
| AAACAAAAGCTGCTTCTGTAAAACTCCTGT | -1.09 |
| GAGCCTGCAAGGGAGACCAGGAAAGTGAAT | -1.08 |
| GCAGGTTCTCAGGCCAATCATATCTCCCAG | -1.06 |
| GTCTGCTACCATCAGATAAGCTCAGGAGAA | -1.2 |
| AAGGACTGTTGGACCTCGAACTCCAGTGGG | 2.31 |
| ACTTGTCTCACATCTGATAGCTAAACCAGA | -1.12 |
| CAGATACCCAGGCATATCCAACCTTCTCCC | -1.11 |
| GTGTGCGTGGGTGGGAAATCATTCCAGCTA | -1.25 |
| CCCATGGTCTGTAGAAGGCGCTGTGAAGCA | -1 |
| ATTTGGCTTTGAATTCCACTTCTACCACTT | 1.01 |
| CCCTGGTCTCTCTTACCCAACCAAAAACAA | 3.11 |

| Sequence | binding signal (log2 normalized intensity) |
| --- | --- |
| TACACAGCTGATGGAAGTTTGCCCTGGTTG | 2.18 |
| TGCATTGGAGGCCAGATGCCAACTGTGGAC | 1.27 |
| CCTCTCAGGAATGTGGATGCTAAAAGTGAA | 0.734 |
| TCCTCATTCACCAGGCAATCAGCCTTAGGT | -1.2 |
| AATTCCAGTTTGGACTTTGATCCTGATGAC | 9.15 |
| CACCAAAGCCCAAGGGATCGTCCAAATACC | -1.17 |
| TGTAGGGAGTGGTTCCCACAGCCCAACTCG | -1.18 |
| CAAGCCGTTCCCTGTACCTAGAATTCTTTC | -0.326 |
| CGGCCGACGTGACCCGCCGCCCGAGGTCAC | 3.01 |
| TTCCCTTATCAGGACTTTGTGATTACATTG | 2.35 |
| GGTGGTGACCCCAGACCTTAGTCTTCATGG | 1.47 |
| TGGTGCTATGTCCCTGACTGTGTGGCTTGC | 0.959 |
| CCACTTGGTGACTGTCATTTCCTTACAAAC | 0.0801 |
| AGAGGATTAAAAGATAAAACATTGTACCTT | 1.9 |
| CAATGGCCTTGCTGCGGATCAAAGGAGCTG | -0.821 |
| CCCTTATCAGCTTATCTCAAGAATTGTCTA | 1.06 |
| GAGCCAGTGAAGACTGAAAAGAGATAACTA | -1.13 |
| GATCAGTGAGAAGAGAAACACATGCAATCA | -1.1 |
| GTTAGATTAGTGTGCAGCTTTGTGTAAAAC | 0.946 |
| ATACTATTGATAACATCTAACAGCTGATGA | 0.555 |
| CAGTAAGAGCATCAGCAATGAACAAAGGTC | 4.27 |
| TCAAAAATGCTTTACAAGGTGGTTGCTGTT | 1.56 |
| GTTGAGGTCAGACATGGCTGTATGTGACAT | 1.37 |
